Target: human Cav1.3-α1 subunit (human, UniProt Q01668-1 1-2161)
Assay: cryo-EM structure

binding result: binds
B1: human α2δ-1 subunit (natural protein)
chain: not shown
